For this assay, the target named is NS1 protein of influenza A/Puerto Rico/8/34 (PR8), expressed from the virus in infected cells (influenza A virus A/Puerto Rico/8/34 (PR8)) (UniProt P03496). As to the kind of experiment: co-IP.

Protein sequences, listed by entry. Tags and fused reporters are not part of them.
UniProt P03496: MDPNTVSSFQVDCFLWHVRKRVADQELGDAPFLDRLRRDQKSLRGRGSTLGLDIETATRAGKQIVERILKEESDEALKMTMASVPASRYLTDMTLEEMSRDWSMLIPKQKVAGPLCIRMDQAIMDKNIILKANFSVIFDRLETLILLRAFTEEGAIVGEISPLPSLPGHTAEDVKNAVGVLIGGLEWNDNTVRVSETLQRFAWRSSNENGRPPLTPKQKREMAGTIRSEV

No constants are given. Whether binding was seen depends on the method and setting. In cells and extracts the contact can be indirect. Some binding calls cover weakened binding; strength is not graded here. Where a sequence is shown, tags or fusion partners need not be part of it.

This passage reports binding results from article PMC3510253 (PLoS Pathogens, 2012).

B1: Myc/DDK-tagged mouse Riplet (enzyme, UniProt Q9CWS1 1-417)
chain: MAAVCSGNAVPVWLSEDDLSCIICQGLLDQPTTLPCGHSFCLRCLHDLWVSKRGAVDGCPWACPICRKGPLTKPKLHKNPLLQDLVDKYLQAAREVEAGSEPEPAPAPRSAPQVTVQKSTTNVIQELTDMVRQLVDDVKSLQTQRPNLGSGQDNAQGTPPTDSSSEGEHSLDSPKLVTFSISQKKIQEILHNLEEIQEKLQGSVPGRAPPRERVQEMTSSLCLLPDQRRPAPRKASHLSLWAISPTFDLRTLSYNLEVSNNSRRVTVSRGDLHTYHWSPQRFSISQVFCSQALSSGQKYWEVDTRNCSHWAIGVASWGMKRDGMLGRTMDSWCIEWRGPGQFSAWAKMKKTDLQSDLPEVVGVWLDLESGELAFYAVADHERLLYECEVSSSSPLHPAFWLYGLSPGNYLEIKQLNT
As to B1, the binding entry is on record as “binds”.
